Experimental data taken from the supplement of paper PMC11417369.
The other results are listed elsewhere or left out.

Tested on: PfHDP1 homeodomain (GST-tagged)
Experiment: gcPBM binding intensity (ln(normalized median fluorescence intensity)); higher = stronger DNA binding
Method in brief: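 DNA-binding domains from P. falciparum, fused to GST and produced in E. coli, were put on an Agilent 4 × 180k double-stranded probe array for 1 h in 1× PBS holding 1% milk, 0.2 mg/ml BSA, 0.5% salmon testes DNA and 0.03% Triton X-100. Probes were primer-extended, 36 bp long and drawn from intergenic genomic regions, with negative controls included. After Alexa488 anti-GST antibody detection and a 488 nm scan, binding intensity was set as the highest Masliner-normalised natural-log median intensity across replicate spots of either probe orientation.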

Row | Sequence | gcPBM binding intensity (ln)
1 | ATATATATATATTGTACACACATTTATGCATATATA [CACACA_site5738] | 8.81
2 | AAGTTATATTTGTGTACACATAATTTTATACTAATA [CACACA_site5553] | 7.12
3 | AATATTAAACAAAATAAATATATAAAAAATAAATAA [GTGCAC_negctrl_site93] | 6.35
4 | TATTTAATACGGACTCATAAATCTTAATAAAAAAAA [CACACA_negctrl_site434] | 6.1
5 | TTTAAGCAAAAACACACACACATATATATATATATA [CACACA_site349] | 9.16
6 | AAAAAATGATAATATACACACTTATGGGAGAGCGCA [CACACA_site5398] | 6.47
7 | TATAAATATATATACACACACATATATATTATATAT [CACACA_site596] | 6.74
8 | ATTATGTTTCTTTTTTTTTTTAAAGGATGTCTTTTT [CACACA_negctrl_site974] | 6.54
9 | TATAAAAAAAACGAAAAAAAAAAAAAAAATACAGGA [TGCATGCA_negctrl_site585] | 6.47
10 | ATATATTTTTAAAAAAATTAAGAATTTTACATCTCC [CACACA_negctrl_site1450] | 6.01
11 | AAAAAAAAAAGACATGCATACGCTAATTTTTAGTTG [TGCATGCA_site300] | 5.98
12 | TATTATAATAAGAAGTGTACGTGTTTTTATAAATAA [XGTACX_site575] | 6.52
13 | TGATAATAAGCATACACACACACACTAGAAAAAAAA [CACACA_site4558] | 6.79
14 | TGTTCTTTATTTTATTGTACTTTTAAAATTCCTTTA [XGTACX_site8058] | 6.98
15 | TTATTTATAAACATATGTACTAATACATGATTAACA [XGTACX_site7645] | 6.26
16 | GACATATATATAAAATGTACATATATATTTACATAT [XGTACX_site7822] | 6.44
17 | AATTTATGTTTTAAAAGTACTTTTCTAATTTATAAA [XGTACX_site1593] | 6.16
18 | CTAAAGTAAATTTAAGCACACACAACGAATTTTTAT [CACACA_site8599] | 6.7
19 | TATGTACAGACATATACACACCTCTATAATCTATAT [CACACA_site6482] | 6.88
20 | AATTAAAAAAAATACACACACACATACCCATATATA [CACACA_site5767] | 6.95
21 | AATGATATATTATAAACACACAAAGATGAATATATA [CACACA_site2818] | 6.52
22 | TACCCTCGTATATATATACACACTAAAATACAGACA [CACACA_site4154] | 6.98
23 | ATTCATTCATATGTTACACACACACCCACCCATAAA [CACACA_site9066] | 8.05
24 | GTTCCATGAGTATATACATGCATATATCTAGTTTAT [TGCATGCA_site388] | 7.16
